The text below walks through data of the BET-seq Pho4 binding data (Le et al. 2018).

The other results are listed elsewhere or left out. The energies were worked out here from pooled read counts, against the library average; single values are noisy.

The target in this assay is T1, Pho4 (S. cerevisiae) (UniProt P07270).
T1 sequence: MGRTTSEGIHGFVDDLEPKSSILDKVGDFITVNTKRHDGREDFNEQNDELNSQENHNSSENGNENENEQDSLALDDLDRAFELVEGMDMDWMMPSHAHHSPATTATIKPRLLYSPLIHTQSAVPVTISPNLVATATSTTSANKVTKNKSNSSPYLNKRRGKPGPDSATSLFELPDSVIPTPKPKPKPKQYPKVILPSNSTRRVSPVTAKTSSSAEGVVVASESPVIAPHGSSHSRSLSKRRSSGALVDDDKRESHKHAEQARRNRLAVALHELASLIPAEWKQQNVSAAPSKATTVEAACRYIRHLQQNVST
The assay is described as follows: relative binding free energy (BET-seq); higher = weaker binding. The note with it: reference: library average.
Consider TTTTTCACGTGATTAA, for which the “relative binding free energy” value is 0.36 kcal/mol. Under ATGTTCACGTGCTTTT stands 0.13 kcal/mol.

Regarding TCATACACGTGTGGTT, the “relative binding free energy” value worked out at 0.07 kcal/mol. As to TTCGTCACGTGAGCTT, the “relative binding free energy” value is 0.42 kcal/mol. Under GAGTGCACGTGGGGGT stands -0.12 kcal/mol; under AAGGACACGTGGGCGG, -0.18 kcal/mol. The result for GTGGTCACGTGAATTA reads 0.43 kcal/mol. The result for TGAACCACGTGAGTGT reads 0.14 kcal/mol. With TTAATCACGTGGCAGG, the “relative binding free energy” value turned out to be 0.08 kcal/mol. For TAAGTCACGTGCGGGG, the “relative binding free energy” value was found to be 0.19 kcal/mol. Consider TTAGTCACGTGCGGAT, for which the “relative binding free energy” value turned out to be 0.05 kcal/mol.

For GTCAGCACGTGTGTGT, the “relative binding free energy” value is -0.04 kcal/mol. GGAGTCACGTGGTTCT: the “relative binding free energy” value worked out at 0.13 kcal/mol.

As for GTTGGCACGTGATGCG, the “relative binding free energy” value is -0.13 kcal/mol. As to AACTGCACGTGTGGGC, the “relative binding free energy” value worked out at 0.18 kcal/mol. With GTAGACACGTGGTTGC, the “relative binding free energy” value is -0.02 kcal/mol. Regarding GTTTTCACGTGGAAGA, the “relative binding free energy” value worked out at 0.4 kcal/mol. The result for TTCCGCACGTGAGTGG reads 0.09 kcal/mol; that for TGTAGCACGTGGGGCA, -0.25 kcal/mol. As to AAAGGCACGTGCTGTA, the “relative binding free energy” value is -0.05 kcal/mol. Take TTCAACACGTGTGTGT: the “relative binding free energy” value worked out at 0.04 kcal/mol. The result for TTGTTCACGTGTATCT reads 0.19 kcal/mol. TAGTACACGTGAGTGT: the “relative binding free energy” value is 0.21 kcal/mol. Under CGTATCACGTGGCGTG stands 0.1 kcal/mol.

Regarding ATATACACGTGTGCGT, the “relative binding free energy” value was -0.08 kcal/mol. TTTGGCACGTGTGGAC: the “relative binding free energy” value is 0.04 kcal/mol. As for GATGGCACGTGGATGG, the “relative binding free energy” value was 0.03 kcal/mol. For CTGGGCACGTGGGCAT, the “relative binding free energy” value is -0.2 kcal/mol.

AGGTGCACGTGGGACC: the “relative binding free energy” value was -0.04 kcal/mol.

Regarding GTCAGCACGTGAGTTA, the “relative binding free energy” value was found to be 0.16 kcal/mol. TGCTTCACGTGGGGTC: the “relative binding free energy” value worked out at 0.13 kcal/mol. Under GAGAGCACGTGAGTTT stands 0.14 kcal/mol. With AGTTGCACGTGGCGAG, the “relative binding free energy” value was -0.11 kcal/mol.

With TGCTGCACGTGGTTCT, the “relative binding free energy” value is -0.09 kcal/mol. Under GTGCGCACGTGGTCTA stands -0.01 kcal/mol; under AGTGCCACGTGAGGAG, 0.14 kcal/mol.

Take CGTGCCACGTGTTTGT: the “relative binding free energy” value turned out to be 0 kcal/mol.

As to TTAAGCACGTGGTAAG, the “relative binding free energy” value is -0.13 kcal/mol. In the case of GGTGTCACGTGTCTAG, the “relative binding free energy” value worked out at 0.19 kcal/mol. Under TGCGACACGTGTGTAT stands -0.01 kcal/mol; under GGATACACGTGTTAGG, 0.02 kcal/mol. The result for TGGGTCACGTGGTCAA reads 0.02 kcal/mol; that for GGTGGCACGTGAATGA, 0.19 kcal/mol. For the sequence TGGGCCACGTGGTTTC, the “relative binding free energy” value was 0.04 kcal/mol. For the sequence GGATACACGTGTTTGG, the “relative binding free energy” value was 0.18 kcal/mol.

ATTGTCACGTGAAGTA: the “relative binding free energy” value was 0.33 kcal/mol. As to TTGGTCACGTGTGATG, the “relative binding free energy” value is 0.19 kcal/mol.

On to TAATTCACGTGGTTCG, for which the “relative binding free energy” value was found to be 0.21 kcal/mol. The result for CAAGTCACGTGTGGCG reads 0.19 kcal/mol.

Regarding TTCGTCACGTGCGGGA, the “relative binding free energy” value was -0.01 kcal/mol. Consider GTGTGCACGTGACTTT, for which the “relative binding free energy” value stood at 0.25 kcal/mol. In the case of ACGAGCACGTGGGTGA, the “relative binding free energy” value was -0.21 kcal/mol.

In the case of GGGTGCACGTGGTCGG, the “relative binding free energy” value was -0.03 kcal/mol. With GTTTTCACGTGTAGGC, the “relative binding free energy” value came to 0.37 kcal/mol. Take GGTTTCACGTGTAGTT: the “relative binding free energy” value worked out at 0.33 kcal/mol. Consider AGGCTCACGTGGATGC, for which the “relative binding free energy” value was 0.33 kcal/mol.

Consider GGTTGCACGTGTATGC, for which the “relative binding free energy” value came out at 0.07 kcal/mol. On to GTGCTCACGTGTTTAG, for which the “relative binding free energy” value came to 0.16 kcal/mol. For GTGTGCACGTGCTGGA, the “relative binding free energy” value was -0.05 kcal/mol.

As for TTTTTCACGTGCCTTT, the “relative binding free energy” value was 0.02 kcal/mol. ATTTCCACGTGTTTCT: the “relative binding free energy” value came out at 0.16 kcal/mol. For AGGGGCACGTGTGTCT, the “relative binding free energy” value is -0.04 kcal/mol. For TGCGTCACGTGATATA, the “relative binding free energy” value worked out at 0.22 kcal/mol.

Take TTTGTCACGTGACCTG: the “relative binding free energy” value was found to be 0.19 kcal/mol. The result for TTCTTCACGTGGGGAG reads 0.21 kcal/mol; that for TCGGCCACGTGGGTGT, -0.21 kcal/mol; that for TTATACACGTGGGTCG, -0.18 kcal/mol. The result for TTGTTCACGTGCCGGC reads 0.34 kcal/mol; that for CGTTTCACGTGTTCGG, 0.23 kcal/mol. As to AGTCGCACGTGAGGCT, the “relative binding free energy” value came out at 0.12 kcal/mol. Under AGTGTCACGTGCAATG stands 0.03 kcal/mol. As for TGTGTCACGTGTAACA, the “relative binding free energy” value amounted to 0.12 kcal/mol. The result for ATGGCCACGTGGGGCG reads -0.33 kcal/mol; that for TATTTCACGTGCGGTG, 0.14 kcal/mol.

ACATTCACGTGTGGGC: the “relative binding free energy” value came out at 0.42 kcal/mol.

Turning to GTAGTCACGTGCAGGT, the “relative binding free energy” value stood at 0.14 kcal/mol. In the case of TGTAGCACGTGTGGTC, the “relative binding free energy” value is -0.07 kcal/mol. For the sequence TTCGGCACGTGTTTTT, the “relative binding free energy” value is -0.03 kcal/mol. Under GATGTCACGTGGATTG stands 0.3 kcal/mol; under GGTGGCACGTGGGTTG, -0.05 kcal/mol. Turning to CTAATCACGTGTTAGG, the “relative binding free energy” value came to 0.17 kcal/mol. Under TAGGGCACGTGTCATT stands -0.1 kcal/mol.

For CTAGTCACGTGATGGT, the “relative binding free energy” value stood at 0.09 kcal/mol. Under AGTTGCACGTGTGGGC stands 0.08 kcal/mol. In the case of AACTGCACGTGGTGCG, the “relative binding free energy” value was -0.01 kcal/mol. For AGTTTCACGTGAAAGC, the “relative binding free energy” value turned out to be 0.48 kcal/mol.

For the sequence ATGTGCACGTGATACG, the “relative binding free energy” value amounted to 0 kcal/mol. On to AAGGTCACGTGTATAA, for which the “relative binding free energy” value came to 0.05 kcal/mol.

For the sequence GGAGCCACGTGAGTGG, the “relative binding free energy” value was 0.15 kcal/mol. For TAATCCACGTGTGGGG, the “relative binding free energy” value was -0.09 kcal/mol. Under GTGGCCACGTGAGGGT stands 0.15 kcal/mol; under GTGGCCACGTGGTCGT, -0.09 kcal/mol; under AGTGTCACGTGAAGGG, 0.36 kcal/mol. The result for TGGCTCACGTGGATAG reads 0.09 kcal/mol. Consider AGATGCACGTGGCTGT, for which the “relative binding free energy” value was -0.24 kcal/mol. Under TTTAACACGTGCGTAG stands -0.02 kcal/mol. Under GGTGGCACGTGGGCGC stands -0.14 kcal/mol; under AATTGCACGTGTTAGC, 0.01 kcal/mol. Take AGTGTCACGTGTATTG: the “relative binding free energy” value stood at 0.02 kcal/mol. For GAGTGCACGTGTAGTA, the “relative binding free energy” value came to 0.2 kcal/mol. AGGGGCACGTGGTTAG: the “relative binding free energy” value was -0.11 kcal/mol. As to CGTTACACGTGAGTGT, the “relative binding free energy” value was 0.17 kcal/mol. Take CTTGGCACGTGTGTGC: the “relative binding free energy” value was -0.05 kcal/mol.

Consider TTTTGCACGTGGGCCT, for which the “relative binding free energy” value is -0.28 kcal/mol.

In the case of CGCTGCACGTGGTTTG, the “relative binding free energy” value is -0.05 kcal/mol. Regarding CTTTGCACGTGTGGAA, the “relative binding free energy” value was 0.03 kcal/mol. On to AATATCACGTGCTGGT, for which the “relative binding free energy” value came out at 0.12 kcal/mol.

On to GGCTACACGTGGGGAG, for which the “relative binding free energy” value was found to be 0.04 kcal/mol. Under AGGGACACGTGGGTAC stands -0.23 kcal/mol; under GGGAGCACGTGACAGG, 0 kcal/mol. Regarding ATGTTCACGTGAGAGT, the “relative binding free energy” value came to 0.35 kcal/mol. Under GGGGGCACGTGTACAG stands -0.09 kcal/mol; under TTTAGCACGTGGGCGA, -0.32 kcal/mol; under TTGTTCACGTGACCGG, 0.43 kcal/mol. For the sequence GGTTTCACGTGTCGAT, the “relative binding free energy” value is 0.26 kcal/mol.
